Molecules are shown by their SMILES. In all, about 310,000 compounds went through this assay and about 2,200 (0.71%) showed an effect of 50% or more. The effect is printed as a negative number. The list shows a part of the results.

In this assay the target is human ether-à-go-go-related gene (hERG) potassium channel (human, UniProt Q12809). As to the kind of experiment: primary screen, population patch clamp on CHO cells stably expressing hERG.
Chain of human ether-à-go-go-related gene (hERG) potassium channel (Q12809 whole entry, looked up): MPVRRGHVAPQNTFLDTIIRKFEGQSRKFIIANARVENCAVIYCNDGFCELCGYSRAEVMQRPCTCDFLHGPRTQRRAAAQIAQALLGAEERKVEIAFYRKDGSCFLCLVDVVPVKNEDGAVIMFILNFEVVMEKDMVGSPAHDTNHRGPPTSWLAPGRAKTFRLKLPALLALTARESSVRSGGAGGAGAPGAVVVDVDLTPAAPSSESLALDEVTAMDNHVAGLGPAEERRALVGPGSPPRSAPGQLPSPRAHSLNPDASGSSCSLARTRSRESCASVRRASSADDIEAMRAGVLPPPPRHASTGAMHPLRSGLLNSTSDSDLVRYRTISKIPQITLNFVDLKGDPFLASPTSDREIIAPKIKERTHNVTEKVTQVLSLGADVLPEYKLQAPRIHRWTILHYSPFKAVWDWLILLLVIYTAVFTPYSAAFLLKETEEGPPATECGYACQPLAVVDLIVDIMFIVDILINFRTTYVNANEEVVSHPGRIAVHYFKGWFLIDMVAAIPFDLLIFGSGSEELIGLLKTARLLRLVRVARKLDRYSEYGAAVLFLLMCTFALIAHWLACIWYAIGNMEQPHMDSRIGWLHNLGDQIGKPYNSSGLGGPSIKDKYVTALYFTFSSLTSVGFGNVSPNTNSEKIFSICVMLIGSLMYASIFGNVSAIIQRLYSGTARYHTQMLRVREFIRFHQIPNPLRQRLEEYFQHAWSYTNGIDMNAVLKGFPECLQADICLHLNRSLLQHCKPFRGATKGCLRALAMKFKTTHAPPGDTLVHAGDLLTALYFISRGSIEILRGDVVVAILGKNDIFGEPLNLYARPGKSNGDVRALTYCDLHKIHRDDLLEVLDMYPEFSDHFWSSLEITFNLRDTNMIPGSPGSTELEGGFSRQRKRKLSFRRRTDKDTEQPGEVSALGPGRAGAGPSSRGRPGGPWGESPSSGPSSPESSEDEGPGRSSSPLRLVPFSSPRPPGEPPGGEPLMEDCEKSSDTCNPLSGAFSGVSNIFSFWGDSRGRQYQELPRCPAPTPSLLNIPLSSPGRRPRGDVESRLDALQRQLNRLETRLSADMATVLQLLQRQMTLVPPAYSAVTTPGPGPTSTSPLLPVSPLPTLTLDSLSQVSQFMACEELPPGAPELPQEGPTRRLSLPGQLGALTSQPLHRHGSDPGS
Turning to `COc1cc(C(=O)N/N=C/c2ccc(OC(=O)c3ccccc3Cl)cc2)ccc1O`, the “hERG current change (%, negative = inhibition) at 1uM” value came to 8.38%.

On to `COc1ccccc1Nc1nc(-c2sc(NC(=O)CC(C)C)nc2C)cs1`, for which the “hERG current change (%, negative = inhibition) at 1uM” value turned out to be 8.73%.

Take `O=C(CCN1C(=O)C2C3C=CC(C3)C2C1=O)N1CC(=O)N(CCc2ccccc2)C(=O)C1` (centres unmarked): the “hERG current change (%, negative = inhibition) at 1uM” value is reported as 1.49%.

Consider `O=C(CSc1nnnn1C1CC1)N1CCN(c2ccc(O)cc2)CC1`, for which the “hERG current change (%, negative = inhibition) at 1uM” value turned out to be 8.62%.

For `O=C(NC1CC1)C1=C[C@@H](C2CCCCC2)C[C@@H](OCc2ccc(CO)cc2)O1`, the “hERG current change (%, negative = inhibition) at 1uM” value amounted to 10.8%.

As to `O=C(NCc1cn2ccccc2n1)C1CCC(=O)N(Cc2ccccc2F)C1` (centres unmarked), the “hERG current change (%, negative = inhibition) at 1uM” value is on record as 8.19%.

On to `Cc1ccc(C(=O)c2cc(C)sc2NC(=O)CN2CCN(C(=O)c3ccco3)CC2)cc1`, for which the “hERG current change (%, negative = inhibition) at 1uM” value is reported as -3.97%.

`CCN1/C(=C2\C(=O)N(C)C(=S)N2C)C=Cc2cc(C)ccc21`: the “hERG current change (%, negative = inhibition) at 1uM” value was determined as 2.44%.

On to `CCCCNCc1ccc(OCc2ccc(Cl)nc2)c(OC)c1.Cl`, for which the “hERG current change (%, negative = inhibition) at 1uM” value turned out to be 1.51%.

Turning to `COc1ccc(C2(C(N)=O)CCCCC2)cc1OC`, the “hERG current change (%, negative = inhibition) at 1uM” value turned out to be 13.5%.

Regarding `Cc1ccc(NC(=O)CSCC(=O)Nc2nnc(C)s2)cc1`, the “hERG current change (%, negative = inhibition) at 1uM” value came out at 10.5%.

In the case of `Cc1ccccc1NC(=O)c1cccc(NC(=O)c2ccco2)c1`, the “hERG current change (%, negative = inhibition) at 1uM” value is 10.6%.

`CC(=O)N1CCN(C(=O)CCc2nc3sc4c(c3c(=O)[nH]2)CCCC4)CC1`: the “hERG current change (%, negative = inhibition) at 1uM” value came out at 8.39%.

Turning to `COc1ccc(-c2sc(C(=O)c3ccc(Cl)cc3Cl)cc2CC(=O)O)cc1`, the “hERG current change (%, negative = inhibition) at 1uM” value is given as 14.2%.

With `Cc1ccc2c(c1)C1CN(C)CCC1N2S(=O)(=O)c1ccccc1F` (centres unmarked), the “hERG current change (%, negative = inhibition) at 1uM” value was found to be 6.35%.

Regarding `N#CCC(=O)c1sccc1-n1cccc1`, the “hERG current change (%, negative = inhibition) at 1uM” value came out at 16.4%.

As to `COCCn1c(C)cc(C(=O)COC(=O)c2ccc(Br)o2)c1C`, the “hERG current change (%, negative = inhibition) at 1uM” value is recorded as -13.5%.

As for `CC(=O)NN1C(=O)c2ccccc2NC1c1cccnc1` (centres unmarked), the “hERG current change (%, negative = inhibition) at 1uM” value is given as 14.8%.

Turning to `COc1ccc(N2CCC(CNC(=S)Nc3c(C)cccc3C)C2)cc1` (centres unmarked), the “hERG current change (%, negative = inhibition) at 1uM” value is recorded as 9.6%.

With `CC(C)(C)c1ccc(C(=O)NNC(=O)CCc2ccccc2)cc1`, the “hERG current change (%, negative = inhibition) at 1uM” value turned out to be 10.1%.

With `COc1ccc(CNC(=S)N2CCN(Cc3ccccc3)CC2)cc1`, the “hERG current change (%, negative = inhibition) at 1uM” value is recorded as 3.02%.

For `COc1ccc2nc(C)cc(Sc3nc4ccccc4s3)c2c1`, the “hERG current change (%, negative = inhibition) at 1uM” value turned out to be 6.95%.

Consider `O=C1Nc2ncccc2OC1CCO` (centres unmarked), for which the “hERG current change (%, negative = inhibition) at 1uM” value came to 21.3%.

On to `O=C(N/N=C/c1coc2ccccc2c1=O)c1cc2ccccc2o1`, for which the “hERG current change (%, negative = inhibition) at 1uM” value is reported as 3.5%.

As to `C/C(=N\NC(=O)CCc1ccccc1)c1ccc(Br)cc1`, the “hERG current change (%, negative = inhibition) at 1uM” value is listed as 9.74%.

On to `CCNc1cc(N2CCCC2)ccc1[N+](=O)[O-]`, for which the “hERG current change (%, negative = inhibition) at 1uM” value is recorded as 10.9%.

As for `CC(C)c1nnc(SCC(=O)Nc2ccc3c(c2)OCCO3)n1C`, the “hERG current change (%, negative = inhibition) at 1uM” value turned out to be 2.19%.

Take `Cc1[nH]n(-c2ccccc2)c(=O)c1C=NC1CCCCC1`: the “hERG current change (%, negative = inhibition) at 1uM” value is -0.515%.

Consider `O=C(CN1CCN(S(=O)(=O)N2CCCCC2)CC1)Nc1ccc(Cl)c(Cl)c1`, for which the “hERG current change (%, negative = inhibition) at 1uM” value came out at 3.09%.

Turning to `Cc1nc(SCC(=O)NC(C)(C)C)c2c(-c3cccs3)csc2n1`, the “hERG current change (%, negative = inhibition) at 1uM” value is recorded as -2.23%.

In the case of `Fc1ccccc1Nc1n[nH]c(=S)s1`, the “hERG current change (%, negative = inhibition) at 1uM” value is given as 17.1%.

Consider `CCOCC(=O)Nc1nc2c(s1)C(=O)CC(C)(C)C2`, for which the “hERG current change (%, negative = inhibition) at 1uM” value was determined as 7.91%.

As for `COc1ccccc1NC(=O)Cc1csc(NC(=O)c2ccccc2)n1`, the “hERG current change (%, negative = inhibition) at 1uM” value came to 7.04%.

For the compound `Cc1ccc(NC(=O)c2ccccc2)cc1`, the “hERG current change (%, negative = inhibition) at 1uM” value is on record as 10.4%.

In the case of `CCOc1ccc(S(=O)(=O)N2CCc3cc(OC)c(OC)cc3C2)cc1`, the “hERG current change (%, negative = inhibition) at 1uM” value is -5.69%.

For `COC(=O)CN1C(=O)N/C(=C/c2ccccc2OC)C1=O`, the “hERG current change (%, negative = inhibition) at 1uM” value is -0.284%.

In the case of `CCOC(=O)c1c(CSc2ccccc2)n(C)c2cc(Br)c(OC)c(O)c12`, the “hERG current change (%, negative = inhibition) at 1uM” value was 10.8%.

With `Cc1cccc2sc(N(CCCN(C)C)C(=O)c3cc4ccccc4oc3=O)nc12.Cl`, the “hERG current change (%, negative = inhibition) at 1uM” value is given as -8.2%.

`Cc1cc(N)n(-c2ccc(C)c(C)c2)n1.Cl`: the “hERG current change (%, negative = inhibition) at 1uM” value was 19.1%.

As to `CCOC(=O)[C@H]1[C@H]2COc3ccc(Cl)cc3[C@@H]2N2C(=O)c3ccc(Cl)cc3NC(=O)[C@@]12C`, the “hERG current change (%, negative = inhibition) at 1uM” value is given as 8.9%.

Take `CCCCNC(=O)c1ccc(CS(=O)(=O)c2ccc(OC)cc2)o1`: the “hERG current change (%, negative = inhibition) at 1uM” value was 0.154%.

As for `CC(/C=N/Nc1nc(C)cc(C)n1)=C\c1ccc(C(C)C)cc1`, the “hERG current change (%, negative = inhibition) at 1uM” value came to 7.29%.

Turning to `CCc1ncc(C(=O)c2ccc(OC)cc2)n1C`, the “hERG current change (%, negative = inhibition) at 1uM” value was 10.7%.

For the compound `CCOc1ccc(NC(=O)CSc2nncc(=O)n2N)cc1`, the “hERG current change (%, negative = inhibition) at 1uM” value came out at 13.7%.

The values above are taken from article PMC4336329 (PLoS ONE, 2015).
